Measured values reported in paper PMC2361802.
No constants are given. Whether binding was seen depends on the method and setting. Binding seen in cells or lysates may run through a third protein. Some entries that bind do so weakly or less than the wild type.

The chains behind the UniProt entries cited, without tags or fusion partners. Where a name states a change or a piece, a line headed by the entry shows the natural chain unless it says otherwise. Residues count along the entry.
UniProt P03372: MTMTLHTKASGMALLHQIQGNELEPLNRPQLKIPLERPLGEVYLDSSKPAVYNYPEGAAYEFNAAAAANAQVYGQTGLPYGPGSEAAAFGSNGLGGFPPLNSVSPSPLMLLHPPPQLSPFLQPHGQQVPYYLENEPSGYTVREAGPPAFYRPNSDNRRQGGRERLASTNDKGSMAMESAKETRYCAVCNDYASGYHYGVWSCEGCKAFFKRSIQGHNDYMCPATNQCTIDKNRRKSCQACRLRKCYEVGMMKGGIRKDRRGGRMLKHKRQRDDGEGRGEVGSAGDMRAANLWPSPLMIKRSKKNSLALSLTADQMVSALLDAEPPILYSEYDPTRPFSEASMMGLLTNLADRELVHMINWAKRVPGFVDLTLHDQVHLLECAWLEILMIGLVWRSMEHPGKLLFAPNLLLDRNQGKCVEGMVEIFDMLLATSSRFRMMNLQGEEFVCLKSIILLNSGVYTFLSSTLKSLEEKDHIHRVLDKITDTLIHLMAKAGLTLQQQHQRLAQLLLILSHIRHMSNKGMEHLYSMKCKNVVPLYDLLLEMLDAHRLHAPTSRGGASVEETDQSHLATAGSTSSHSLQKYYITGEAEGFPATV
GST-ER α AF-2 (263-595): residues 263-595 of P03372
UniProt Q92731: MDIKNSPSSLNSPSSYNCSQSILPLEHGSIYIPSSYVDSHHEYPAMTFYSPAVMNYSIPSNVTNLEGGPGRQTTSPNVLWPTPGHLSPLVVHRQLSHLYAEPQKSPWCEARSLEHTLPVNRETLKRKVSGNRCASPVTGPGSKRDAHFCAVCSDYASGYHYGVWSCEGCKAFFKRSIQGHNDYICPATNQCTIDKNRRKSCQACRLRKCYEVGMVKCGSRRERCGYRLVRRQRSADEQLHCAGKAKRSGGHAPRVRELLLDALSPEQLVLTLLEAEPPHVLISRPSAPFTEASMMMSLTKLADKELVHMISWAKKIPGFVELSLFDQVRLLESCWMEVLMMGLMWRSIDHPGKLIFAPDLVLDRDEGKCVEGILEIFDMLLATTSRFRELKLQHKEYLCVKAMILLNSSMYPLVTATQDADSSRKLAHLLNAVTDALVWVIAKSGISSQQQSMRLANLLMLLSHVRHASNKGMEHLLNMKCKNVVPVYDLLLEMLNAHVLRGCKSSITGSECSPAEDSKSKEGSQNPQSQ
GST-ER β AF-2 (248-530): residues 248-530 of Q92731
UniProt P43246: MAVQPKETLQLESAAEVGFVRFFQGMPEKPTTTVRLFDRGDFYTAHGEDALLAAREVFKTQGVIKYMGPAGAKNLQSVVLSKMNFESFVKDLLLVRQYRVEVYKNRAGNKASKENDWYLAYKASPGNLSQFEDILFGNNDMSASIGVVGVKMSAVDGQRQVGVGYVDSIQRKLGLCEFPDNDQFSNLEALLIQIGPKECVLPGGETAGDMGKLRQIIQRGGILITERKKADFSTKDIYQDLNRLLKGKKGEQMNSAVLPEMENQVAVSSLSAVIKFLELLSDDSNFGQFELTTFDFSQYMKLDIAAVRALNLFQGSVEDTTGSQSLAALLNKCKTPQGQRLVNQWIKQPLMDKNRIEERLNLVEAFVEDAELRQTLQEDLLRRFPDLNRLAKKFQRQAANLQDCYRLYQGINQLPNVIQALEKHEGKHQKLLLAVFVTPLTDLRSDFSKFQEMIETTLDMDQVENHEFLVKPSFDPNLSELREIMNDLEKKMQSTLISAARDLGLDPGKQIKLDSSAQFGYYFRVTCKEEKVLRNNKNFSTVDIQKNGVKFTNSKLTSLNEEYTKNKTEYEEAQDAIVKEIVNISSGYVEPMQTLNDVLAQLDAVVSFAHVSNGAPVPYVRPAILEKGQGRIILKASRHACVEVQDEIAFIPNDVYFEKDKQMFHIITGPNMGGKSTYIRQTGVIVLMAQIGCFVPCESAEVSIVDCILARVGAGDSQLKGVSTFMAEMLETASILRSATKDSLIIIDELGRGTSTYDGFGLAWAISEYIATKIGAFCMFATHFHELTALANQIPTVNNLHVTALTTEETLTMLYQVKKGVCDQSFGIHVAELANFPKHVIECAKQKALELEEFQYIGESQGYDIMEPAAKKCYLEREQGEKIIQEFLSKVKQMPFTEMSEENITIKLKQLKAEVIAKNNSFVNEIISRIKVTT
UniProt Q15648: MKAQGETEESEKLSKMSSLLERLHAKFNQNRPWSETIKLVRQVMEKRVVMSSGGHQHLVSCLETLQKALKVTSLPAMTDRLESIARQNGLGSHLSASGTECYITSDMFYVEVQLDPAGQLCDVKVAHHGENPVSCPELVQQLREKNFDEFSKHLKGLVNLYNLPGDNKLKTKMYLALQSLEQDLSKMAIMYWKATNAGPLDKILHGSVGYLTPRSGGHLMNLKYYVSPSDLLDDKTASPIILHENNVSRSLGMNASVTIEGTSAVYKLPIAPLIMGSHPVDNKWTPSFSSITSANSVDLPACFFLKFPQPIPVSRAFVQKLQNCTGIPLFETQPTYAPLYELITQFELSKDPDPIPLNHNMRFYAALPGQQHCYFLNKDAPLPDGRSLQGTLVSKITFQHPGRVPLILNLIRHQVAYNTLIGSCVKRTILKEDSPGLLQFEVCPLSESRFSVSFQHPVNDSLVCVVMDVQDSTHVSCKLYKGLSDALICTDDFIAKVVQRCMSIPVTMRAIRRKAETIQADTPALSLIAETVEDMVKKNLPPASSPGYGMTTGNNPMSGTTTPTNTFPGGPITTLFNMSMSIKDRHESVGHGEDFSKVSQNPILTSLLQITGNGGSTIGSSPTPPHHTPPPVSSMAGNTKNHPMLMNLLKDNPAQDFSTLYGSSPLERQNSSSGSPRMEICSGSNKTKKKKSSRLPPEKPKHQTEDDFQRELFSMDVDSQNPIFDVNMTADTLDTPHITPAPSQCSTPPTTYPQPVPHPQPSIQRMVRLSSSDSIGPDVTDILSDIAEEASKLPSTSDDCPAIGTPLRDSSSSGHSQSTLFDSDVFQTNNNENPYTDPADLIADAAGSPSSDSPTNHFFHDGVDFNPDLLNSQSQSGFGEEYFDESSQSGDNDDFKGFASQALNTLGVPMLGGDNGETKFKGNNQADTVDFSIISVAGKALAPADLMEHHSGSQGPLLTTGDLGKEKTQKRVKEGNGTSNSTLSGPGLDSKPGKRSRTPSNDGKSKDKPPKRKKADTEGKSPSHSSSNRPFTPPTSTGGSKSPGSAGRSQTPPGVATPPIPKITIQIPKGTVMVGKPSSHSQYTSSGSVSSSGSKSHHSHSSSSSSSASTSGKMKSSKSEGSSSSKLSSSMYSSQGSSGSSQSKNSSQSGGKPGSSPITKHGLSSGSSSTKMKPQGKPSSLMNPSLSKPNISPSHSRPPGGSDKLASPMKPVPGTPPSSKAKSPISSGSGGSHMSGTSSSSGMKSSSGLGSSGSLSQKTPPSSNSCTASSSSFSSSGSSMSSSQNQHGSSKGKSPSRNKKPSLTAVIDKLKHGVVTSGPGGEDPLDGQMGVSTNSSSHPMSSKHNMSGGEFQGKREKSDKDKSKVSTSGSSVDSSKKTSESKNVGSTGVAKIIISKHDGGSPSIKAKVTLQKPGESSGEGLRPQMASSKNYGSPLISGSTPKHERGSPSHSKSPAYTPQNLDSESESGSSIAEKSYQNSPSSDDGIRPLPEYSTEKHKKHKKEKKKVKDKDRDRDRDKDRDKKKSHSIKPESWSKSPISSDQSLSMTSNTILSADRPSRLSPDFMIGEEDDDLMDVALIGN

Columns and labels:
[1] = biological target: GST-ER α AF-2 (263-595) (human) (UniProt P03372); test: pull-down; GST fusion on glutathione-sepharose 4B beads, preincubated 30 min with 17-β estradiol (10^-6 M) in NET buffer (20 mM Tris-HCl pH 7.5, 200 mM NaCl, 1 mM EDTA); 35S-labelled in vitro translated protein, 1 h, 4°C; autoradiography; only the target purified
[2] = biological target: GST-ER α AF-2 (263-595) (human) (UniProt P03372); test: pull-down; GST fusion on glutathione-sepharose 4B beads, preincubated 30 min without 17-β estradiol in NET buffer (20 mM Tris-HCl pH 7.5, 200 mM NaCl, 1 mM EDTA); 35S-labelled in vitro translated protein, 1 h, 4°C; autoradiography; only the target purified
[3] = biological target: GST-ER β AF-2 (248-530) (human) (UniProt Q92731); test: as above
[4] = biological target: GST-ER β AF-2 (248-530) (human) (UniProt Q92731); test: pull-down; GST fusion on glutathione-sepharose 4B beads, preincubated 30 min with 17-β estradiol (10^-6 M) in NET buffer (20 mM Tris-HCl pH 7.5, 200 mM NaCl, 1 mM EDTA); 35S-labelled in vitro translated protein, 1 h, 4°C; autoradiography; only the target purified
[5] = biological target: human MutS homologue 2 (hMSH2), endogenous (human (endogenous in Ishikawa and MDA-MB-231)) (UniProt P43246); test: co-IP; reciprocal IP of endogenous proteins with the antibody raised against hMSH2, immunoblot for ER α and ER β

“FLAG-tagged hMSH2 fragment F1 (1-178) (from UniProt P43246 1-178) (domain or fragment)” was tested, and the binding [1] was “no binding”.

In the case of “FLAG-tagged hMSH2 fragment F2 (179-377) (from UniProt P43246 179-377) (domain or fragment)”, the binding [1] is reported as “no binding”.

“FLAG-tagged hMSH2 fragment F3 (378-625) (from UniProt P43246 378-625) (domain or fragment)” was tested, and the binding [2] was “no binding (condition: without 17-β estradiol)”, the binding [3] was “binds” and the binding [1] was “binds”. The binding [4] was “binds”.

“FLAG-tagged hMSH2 fragment F4 (609-888) (from UniProt P43246 609-888) (domain or fragment)” was tested, and the binding [3] was “binds”, the binding [1] was “no binding” and the binding [4] was “binds”.

In the case of “FLAG-tagged hMSH2 fragment F5 (793-934) (from UniProt P43246 793-934) (domain or fragment)”, the binding [1] is reported as “no binding”.

With “in vitro translated TRAP220 (from UniProt Q15648 1-1581)” the binding [1] was “binds”.

In the case of “oestrogen receptor α (ER α), endogenous (from UniProt P03372 1-595)”, the binding [5] is reported as “binds”.

For “oestrogen receptor β (ER β), endogenous (from UniProt Q92731 1-530)”, the binding [5] was “binds”.
